Reference: the antibiotic and cytotoxicity screens of Wong et al. (2023)
Some of the results follow.

tested on: S. aureus RN4220; test: growth inhibition call (relative growth <= 0.2); settings: 50 µM

Growth inhibition call, active:
CCN1CCN(C(=O)NC(C(=O)NC2C(=O)N3C(C(=O)O)=C(CSc4nnnn4C)CSC23)c2ccc(O)cc2)C(=O)C1=O (configuration not stated)

Growth inhibition call, inactive:
COc1ccc(S(=O)(=O)N(C)C[C@@H]2Oc3ccc(NS(=O)(=O)c4c(C)noc4C)cc3CC(=O)N([C@@H](C)CO)C[C@@H]2C)cc1
CN(C)CCCNC(=O)[C@H]1[C@H](CO)[C@H]2Cn3c(ccc(-c4cccc(C(=O)N(C)C)c4)c3=O)[C@@H]1N2
C[C@@H]1CN([C@@H](C)CO)C(=O)Cc2cc(NC(=O)Nc3cccc4ccccc34)ccc2O[C@H]1CN(C)S(=O)(=O)c1ccc(Cl)cc1
CN(C)CCCNC(=O)C[C@@H]1C=C[C@H](NC(=O)Cc2cccnc2)[C@H](CO)O1
C[C@@H]1CCCCO[C@H](CN(C)C(=O)Nc2ccc(C(F)(F)F)cc2)[C@@H](C)CN([C@@H](C)CO)C(=O)c2cc(NC(=O)Nc3cccc4ccccc34)ccc2O1
Cn1cnc2c1[C@H](C(=O)N1CCN(c3ccccc3)CC1)N(S(C)(=O)=O)CC2
CCCNC(=O)N(C)C[C@H]1Oc2cc(-c3ccc(C)cc3)ccc2S(=O)(=O)N([C@H](C)CO)C[C@H]1C
COc1ccc(CN(C)C[C@H]2OCCCC[C@H](C)Oc3ccc(NC(=O)Nc4ccc5c(c4)OCO5)cc3C(=O)N([C@@H](C)CO)C[C@@H]2C)cc1
C[C@H](CO)N1C[C@H](C)[C@@H](CN(C)C(=O)Nc2ccc(C(F)(F)F)cc2)Oc2ccc(NC(=O)Cc3ccccc3)cc2CC1=O
CO[C@@H](C(=O)N(C)C[C@@H]1OCc2ccccc2-c2c(n(C)c3ccccc23)C(=O)N([C@H](C)CO)C[C@H]1C)c1ccccc1
O=C(C[C@H]1C=C[C@@H](NC(=O)CN2CCOCC2)[C@H](CO)O1)NC1CCCCC1
